{"source": "the supplement of paper PMC8728848", "binders": {"B1": {"name": "MAA (Maackia amurensis), P0DKL3 (protein)", "chain": "MATSNSKPTQVLLATFLTFFFLLLNNVNSSDELSFTINNFVPNEADLLFQGEASVSSTGVLQLTRVENGQPQKYSVGRALYAAPVRIWDNTTGSVASFSTSFTFVVKAPNPDITSDGLAFYLAPPDSQIPSGSVSKYLGLFNNSNSDSSNQIVAVELDTYFAHSYDPWDPNYRHIGIDVNGIESIKTVQWDWINGGVAFATITYLAPNKTLIASLVYPSNQTTFSVAASVDLKEILPEWVRVGFSAATGYPTEVETHDVLSWSFTSTLEANCDAATENNVHIARYTA"}}, "assay_in_all_cases": "glycan array binding signal (z-score within array); higher = stronger binding", "conditions_in_all_cases": "glycan notation: IUPAC condensed, linker removed", "key": {"[1]": {"molecular_target": "Neu5Ac(a2-3)Gal(b1-4)GlcNAc(b1-3)Gal(b1-4)GlcNAc(b1-2)Man(a1-3)[Neu5Ac(a2-3)Gal(b1-4)GlcNAc(b1-3)Gal(b1-4)GlcNAc(b1-2)Man(a1-6)]Man(b1-4)GlcNAc(b1-4)GlcNAc", "procedure,_shortened": "(§1)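 Negative Z-scores can be read as non-binding. The Z-score is calculated within each array and then averaged across arrays of one protein sequence at different concentrations or buffers and across linkers. Arrays, 3228 in all, were curated from the Consortium for Functional Glycomics database and kept only where the protein sequence was available.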"}, "[2]": {"molecular_target": "Neu5Ac(a2-3)Gal(b1-4)GlcNAc(b1-3)Gal(b1-4)GlcNAc(b1-3)Gal(b1-4)GlcNAc", "procedure,_shortened": "as §1"}, "[3]": {"molecular_target": "Neu5Ac(a2-3)Gal(b1-4)GlcNAc(b1-3)Gal(b1-4)GlcNAc(b1-3)Gal(b1-4)GlcNAc(b1-2)Man(a1-3)[Neu5Ac(a2-3)Gal(b1-4)GlcNAc(b1-3)Gal(b1-4)GlcNAc(b1-3)Gal(b1-4)GlcNAc(b1-2)Man(a1-6)]GalNAc", "procedure,_shortened": "as §1"}, "[4]": {"molecular_target": "Neu5Ac(a2-3)Gal(b1-4)GlcNAc(b1-3)Gal(b1-4)GlcNAc(b1-3)GalNAc", "procedure,_shortened": "as §1"}, "[5]": {"molecular_target": "Neu5Ac(a2-3)Gal(b1-4)GlcNAc(b1-3)Gal(b1-4)GlcNAc(b1-3)[Neu5Ac(a2-3)Gal(b1-4)GlcNAc(b1-3)Gal(b1-4)GlcNAc(b1-6)]GalNAc", "procedure,_shortened": "as §1"}, "[6]": {"molecular_target": "Neu5Ac(a2-3)Gal(b1-4)GlcNAc(b1-3)Gal(b1-4)GlcNAc(b1-6)[Gal(b1-3)]GalNAc", "procedure,_shortened": "as §1"}, "[7]": {"molecular_target": "Neu5Ac(a2-3)Gal(b1-4)GlcNAc(b1-3)Gal(b1-4)[Fuc(a1-3)]GlcNAc", "procedure,_shortened": "as §1"}, "[8]": {"molecular_target": "Neu5Ac(a2-3)Gal(b1-4)GlcNAc(b1-3)GalNAc", "procedure,_shortened": "as §1"}, "[9]": {"molecular_target": "Neu5Ac(a2-3)Gal(b1-4)GlcNAc(b1-3)[Neu5Ac(a2-3)Gal(b1-4)GlcNAc(b1-6)]GalNAc", "procedure,_shortened": "as §1"}, "[10]": {"molecular_target": "Neu5Ac(a2-3)Gal(b1-4)GlcNAc(b1-6)GalNAc", "procedure,_shortened": "as §1"}, "[11]": {"molecular_target": "Neu5Ac(a2-3)Gal(b1-4)GlcNAc(b1-6)[Gal(b1-3)]GalNAc", "procedure,_shortened": "as §1"}, "[12]": {"molecular_target": "Neu5Ac(a2-3)Gal(b1-4)GlcNAc(b1-6)[Neu5Ac(a2-3)Gal(b1-3)]GalNAc", "procedure,_shortened": "as §1"}, "[13]": {"molecular_target": "Neu5Ac(a2-3)Gal(b1-4)GlcNAc6S", "procedure,_shortened": "as §1"}, "[14]": {"molecular_target": "Neu5Ac(a2-3)Gal(b1-4)[Fuc(a1-3)]GlcNAc", "procedure,_shortened": "as §1"}, "[15]": {"molecular_target": "Neu5Ac(a2-3)Gal(b1-4)[Fuc(a1-3)]GlcNAc(b1-2)Man", "procedure,_shortened": "as §1"}, "[16]": {"molecular_target": "Neu5Ac(a2-3)Gal(b1-4)[Fuc(a1-3)]GlcNAc(b1-3)Gal", "procedure,_shortened": "as §1"}, "[17]": {"molecular_target": "Neu5Ac(a2-3)Gal(b1-4)[Fuc(a1-3)]GlcNAc(b1-3)Gal(b1-4)GlcNAc", "procedure,_shortened": "as §1"}, "[18]": {"molecular_target": "Neu5Ac(a2-3)Gal(b1-4)[Fuc(a1-3)]GlcNAc(b1-3)Gal(b1-4)[Fuc(a1-3)]GlcNAc(b1-3)Gal(b1-4)[Fuc(a1-3)]GlcNAc", "procedure,_shortened": "as §1"}, "[19]": {"molecular_target": "Neu5Ac(a2-3)Gal(b1-4)[Fuc(a1-3)]GlcNAc(b1-3)GalNAc", "procedure,_shortened": "as §1"}, "[20]": {"molecular_target": "Neu5Ac(a2-3)Gal(b1-4)[Fuc(a1-3)]GlcNAc(b1-6)[Gal(b1-3)]GalNAc", "procedure,_shortened": "as §1"}, "[21]": {"molecular_target": "Neu5Ac(a2-3)Gal(b1-4)[Fuc(a1-3)]GlcNAc(b1-6)[Neu5Ac(a2-3)Gal(b1-3)]GalNAc", "procedure,_shortened": "as §1"}, "[22]": {"molecular_target": "Neu5Ac(a2-3)Gal(b1-4)[Fuc(a1-3)]GlcNAc6S", "procedure,_shortened": "as §1"}, "[23]": {"molecular_target": "Neu5Ac(a2-3)Gal6S(b1-4)GlcNAc", "procedure,_shortened": "as §1"}, "[24]": {"molecular_target": "Neu5Ac(a2-3)Gal6S(b1-4)[Fuc(a1-3)]GlcNAc", "procedure,_shortened": "as §1"}, "Neu5Ac(a2-3)GalNAc": {"molecular_target": "Neu5Ac(a2-3)GalNAc", "procedure,_shortened": "as §1"}, "[25]": {"molecular_target": "Neu5Ac(a2-3)GalNAc(b1-4)GlcNAc", "procedure,_shortened": "as §1"}, "[26]": {"molecular_target": "Neu5Ac(a2-3)[GalNAc(b1-4)]Gal(b1-4)Glc", "procedure,_shortened": "as §1"}, "[27]": {"molecular_target": "Neu5Ac(a2-3)[GalNAc(b1-4)]Gal(b1-4)GlcNAc", "procedure,_shortened": "as §1"}, "[28]": {"molecular_target": "Neu5Ac(a2-3)[GalNAc(b1-4)]Gal(b1-4)GlcNAc(b1-3)GalNAc", "procedure,_shortened": "as §1"}, "[29]": {"molecular_target": "Neu5Ac(a2-3)[Neu5Ac(a2-6)]GalNAc", "procedure,_shortened": "as §1"}, "Neu5Ac(a2-6)Gal": {"molecular_target": "Neu5Ac(a2-6)Gal", "procedure,_shortened": "as §1"}, "[30]": {"molecular_target": "Neu5Ac(a2-6)Gal(b1-3)GlcNAc(b1-3)[Gal(b1-4)GlcNAc(b1-6)]Gal(b1-4)Glc", "procedure,_shortened": "as §1"}, "Neu5Ac(a2-6)Gal(b1-4)Glc": {"molecular_target": "Neu5Ac(a2-6)Gal(b1-4)Glc", "procedure,_shortened": "as §1"}, "[31]": {"molecular_target": "Neu5Ac(a2-6)Gal(b1-4)GlcNAc", "procedure,_shortened": "as §1"}}, "note": "The other results are listed elsewhere or left out.", "data": [{"binder": "B1", "values": [{"measurement": "glycan array binding signal (z-score)", "setting": "[1]", "result": 0.785}, {"measurement": "glycan array binding signal (z-score)", "setting": "[2]", "result": 1.27}, {"measurement": "glycan array binding signal (z-score)", "setting": "[3]", "result": 0.409}, {"measurement": "glycan array binding signal (z-score)", "setting": "[4]", "result": 0.246}, {"measurement": "glycan array binding signal (z-score)", "setting": "[5]", "result": 1.22}, {"measurement": "glycan array binding signal (z-score)", "setting": "[6]", "result": 0.564}, {"measurement": "glycan array binding signal (z-score)", "setting": "[7]", "result": 0.179}, {"measurement": "glycan array binding signal (z-score)", "setting": "[8]", "result": 0.626}, {"measurement": "glycan array binding signal (z-score)", "setting": "[9]", "result": 0.568}, {"measurement": "glycan array binding signal (z-score)", "setting": "[10]", "result": -0.073}, {"measurement": "glycan array binding signal (z-score)", "setting": "[11]", "result": -0.014}, {"measurement": "glycan array binding signal (z-score)", "setting": "[12]", "result": -0.036}, {"measurement": "glycan array binding signal (z-score)", "setting": "[13]", "result": 0.088}, {"measurement": "glycan array binding signal (z-score)", "setting": "[14]", "result": -0.212}, {"measurement": "glycan array binding signal (z-score)", "setting": "[15]", "result": -0.234}, {"measurement": "glycan array binding signal (z-score)", "setting": "[16]", "result": -0.256}, {"measurement": "glycan array binding signal (z-score)", "setting": "[17]", "result": -0.241}, {"measurement": "glycan array binding signal (z-score)", "setting": "[18]", "result": -0.157}, {"measurement": "glycan array binding signal (z-score)", "setting": "[19]", "result": -0.151}, {"measurement": "glycan array binding signal (z-score)", "setting": "[20]", "result": 0.541}, {"measurement": "glycan array binding signal (z-score)", "setting": "[21]", "result": 0.045}, {"measurement": "glycan array binding signal (z-score)", "setting": "[22]", "result": -0.236}, {"measurement": "glycan array binding signal (z-score)", "setting": "[23]", "result": -0.162}, {"measurement": "glycan array binding signal (z-score)", "setting": "[24]", "result": -0.251}, {"measurement": "glycan array binding signal (z-score)", "setting": "Neu5Ac(a2-3)GalNAc", "result": -0.313}, {"measurement": "glycan array binding signal (z-score)", "setting": "[25]", "result": -0.276}, {"measurement": "glycan array binding signal (z-score)", "setting": "[26]", "result": -0.238}, {"measurement": "glycan array binding signal (z-score)", "setting": "[27]", "result": -0.239}, {"measurement": "glycan array binding signal (z-score)", "setting": "[28]", "result": 0.081}, {"measurement": "glycan array binding signal (z-score)", "setting": "[29]", "result": -0.29}, {"measurement": "glycan array binding signal (z-score)", "setting": "Neu5Ac(a2-6)Gal", "result": -0.205}, {"measurement": "glycan array binding signal (z-score)", "setting": "[30]", "result": -0.21}, {"measurement": "glycan array binding signal (z-score)", "setting": "Neu5Ac(a2-6)Gal(b1-4)Glc", "result": -0.035}, {"measurement": "glycan array binding signal (z-score)", "setting": "[31]", "result": -0.23}]}]}
